Data on 44 compounds can be found in PMC4336329 (PLoS ONE, 2015).

Hit rate of the full screen: of about 310,000 compounds, about 14,000 (4.5%) showed an effect of 50% or more. Effects have a minus sign here. This is one part of the list.
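Note: peak tail current of the secondary pulse compared with the same well before compound.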

human ether-à-go-go-related gene (hERG) potassium channel, sequence (Q12809 whole entry, looked up): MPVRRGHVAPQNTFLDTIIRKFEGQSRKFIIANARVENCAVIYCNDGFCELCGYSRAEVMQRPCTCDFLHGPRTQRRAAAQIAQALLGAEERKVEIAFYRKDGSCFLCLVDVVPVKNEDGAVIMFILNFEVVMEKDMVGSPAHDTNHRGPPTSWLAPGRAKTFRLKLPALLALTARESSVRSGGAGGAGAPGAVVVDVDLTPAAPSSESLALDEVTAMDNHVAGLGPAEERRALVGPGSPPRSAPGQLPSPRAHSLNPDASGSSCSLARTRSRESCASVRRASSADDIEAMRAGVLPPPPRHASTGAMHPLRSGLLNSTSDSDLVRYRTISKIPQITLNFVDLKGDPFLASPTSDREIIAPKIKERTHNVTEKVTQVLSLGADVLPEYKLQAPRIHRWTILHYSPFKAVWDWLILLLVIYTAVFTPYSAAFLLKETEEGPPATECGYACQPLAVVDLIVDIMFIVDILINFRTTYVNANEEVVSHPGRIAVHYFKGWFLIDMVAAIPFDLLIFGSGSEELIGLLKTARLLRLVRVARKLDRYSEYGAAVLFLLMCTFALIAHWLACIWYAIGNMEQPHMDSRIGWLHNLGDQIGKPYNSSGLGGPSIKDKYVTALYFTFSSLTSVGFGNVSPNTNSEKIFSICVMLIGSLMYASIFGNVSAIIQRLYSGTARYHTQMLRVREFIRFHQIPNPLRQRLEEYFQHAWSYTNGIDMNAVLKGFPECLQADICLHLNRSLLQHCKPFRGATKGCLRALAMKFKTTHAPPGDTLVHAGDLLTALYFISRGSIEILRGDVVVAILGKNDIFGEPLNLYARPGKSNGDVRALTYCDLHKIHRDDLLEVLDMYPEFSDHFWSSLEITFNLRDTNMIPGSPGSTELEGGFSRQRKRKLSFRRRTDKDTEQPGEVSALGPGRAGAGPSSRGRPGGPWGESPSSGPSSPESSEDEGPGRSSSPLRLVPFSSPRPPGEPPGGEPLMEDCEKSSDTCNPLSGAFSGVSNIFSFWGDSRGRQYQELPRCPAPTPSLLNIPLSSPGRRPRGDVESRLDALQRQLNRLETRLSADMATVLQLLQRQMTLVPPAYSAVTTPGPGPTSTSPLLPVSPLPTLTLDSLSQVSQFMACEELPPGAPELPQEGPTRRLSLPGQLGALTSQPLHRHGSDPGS

The experiment addresses human ether-à-go-go-related gene (hERG) potassium channel (human, UniProt Q12809). The experiment is described as follows: primary screen, population patch clamp on CHO cells stably expressing hERG.
Consider `COc1ccc2[nH]c3c(c2c1)[C@@H]1CCN2C(=O)CCC[C@H](C3)[C@H]12`, for which the “hERG current change (%, negative = inhibition) at 10uM” value is reported as -23.1%.
The value for `Cc1sc(NC(=O)C2CSC3(C)CCC(=O)N23)nc1-c1ccccc1` (centres unmarked) was -8.22%; that for `CCCc1nnc(NC(=O)c2cccs2)s1` was 20.1%; that for `CCn1cc(C(=S)N2CCC(C(N)=O)CC2)c2ccccc21` was 3.49%.
The value for `CCn1ccc(C(=O)Nc2c(C)nn(Cc3c(F)c(F)c(F)c(F)c3F)c2C)n1` was 26.7%.
In the case of `CC(=O)N1CCCc2cc(S(=O)(=O)CCC(=O)Nc3cccc(C)c3C)ccc21`, the “hERG current change (%, negative = inhibition) at 10uM” value came to 7.92%.
As to `S=c1[nH]nc(C2CCCCC2)n1/N=C/c1ccc(Cl)cc1`, the “hERG current change (%, negative = inhibition) at 10uM” value worked out at 8.98%.
The result for `CCn1c(O)c(N=NC2=NC(=O)CS2)c2cc(C)ccc21` reads 14.4%; that for `CC(=O)Nc1ccc(S(=O)(=O)N2CCN(C(=O)C3COc4ccccc4O3)CC2)cc1` (centres unmarked), -7.33%; that for `COCCNC(=O)C(c1cccc(OC)c1)N(Cc1cccs1)C(=O)Cn1nnc2ccccc21` (centres unmarked), 15%.
The value for `O=S(=O)(c1ccc(SCc2cccc(Cl)c2)nc1)N1CCCC1` was -9.81%; that for `O=C(COc1ccccc1-c1ccccc1)c1ccccc1` was -26.7%; that for `Oc1c(CN2CCN(c3ccccn3)CC2)cc(Cl)c2cccnc12` was -48.7%.
The result for `O=C(O)CSCC(=O)Nc1ccc(C2CCCCC2)cc1` reads 2.24%; that for `COc1ccccc1CCNC(=O)C(=O)NCC1OCCN1S(=O)(=O)c1ccc(Cl)cc1` (centres unmarked), -22.3%; that for `Cc1nn2c(-n3ccnc3C)c3c(nc2c1-c1ccccc1)CCC3`, -29.6%.
For the compound `CCCCC(=O)c1ccc(O)cc1O`, the “hERG current change (%, negative = inhibition) at 10uM” value is given as -1.99%.
The value for `CCC1CCCCN1CCCNC(=O)Cn1ncn2nc(-c3ccc(OC)cc3)cc2c1=O` (centres unmarked) was -42.1%.
The result for `CC1CCN(C(=O)c2cc(-c3ccc(Cl)c(Cl)c3)on2)CC1` reads 5.97%; that for `CS(=O)(=O)N1CCc2cc(C(=O)Nc3ccc(Cl)cc3)ccc21`, 3.06%.
The value for `O=C(Nc1ccc(N2CCN(C(=O)c3ccco3)CC2)cc1)c1cccc(F)c1` was -44.8%; that for `CCOC(=O)c1ccc(S(=O)(=O)N2CCC(C(=O)O)CC2)cc1` was 19.6%.
For `Cc1nc2cc(NC(=O)c3ccc(Br)s3)ccc2s1`, the “hERG current change (%, negative = inhibition) at 10uM” value stood at 20%.
On to `CCN(c1ccc2c(c1)OCO2)S(=O)(=O)c1cc(Br)cc2c1N(C(=O)C1CC1)CC2`, for which the “hERG current change (%, negative = inhibition) at 10uM” value is 8.05%.
The result for `c1nc2sc3c(c2c2nnnn12)CCCC3` reads 0.454%; that for `COc1cc(O)c(C(CC(=O)N2CCCCC2)c2cc(OC)c(OC)c(OC)c2)c(OC)c1` (centres unmarked), 14.2%.
The result for `Cc1ccc(C(O)(C(=O)NNS(=O)(=O)c2ccc(C)cc2)c2ccc(C)cc2)cc1` reads -5.55%; that for `CC1CCN(Cc2c(C#N)c3ccccc3n2C)CC1`, -4.98%.
The value for `CCC(=O)NC(=S)Nc1cccc(Cl)c1N1CCCCC1` was 0.421%; that for `CC(C1CC1)N(Cc1ccccc1)C(=S)Nc1cccc(C(F)(F)F)c1` (centres unmarked) was 1.76%.
As to `Cc1nn(C)c(C(=O)NCc2ccc(Cl)cc2)c1Cl`, the “hERG current change (%, negative = inhibition) at 10uM” value is -0.714%.
On to `Cc1cc(C(=O)Nc2ccccc2)oc(=O)c1`, for which the “hERG current change (%, negative = inhibition) at 10uM” value stood at 11.6%.
Regarding `COc1ccc(NC(=O)CSc2nnc(NC(=O)c3ccco3)s2)cc1OC`, the “hERG current change (%, negative = inhibition) at 10uM” value is on record as 15%.
The value for `COc1cc(/C=C2/SC(=S)N(c3c(C)n(C)n(-c4ccccc4)c3=O)C2=O)ccc1O` was -28.6%.
The result for `Cc1ccc(-c2noc(-c3c(C)noc3C)n2)cc1` reads 7.59%.
`CCC(=O)c1ccc(OCC(=O)OCC(=O)Nc2sccc2C(N)=O)cc1`: the “hERG current change (%, negative = inhibition) at 10uM” value is listed as 3.22%.
In the case of `Clc1ccc(OC2CCN(Cc3nc(CC4CC4)no3)CC2)cc1`, the “hERG current change (%, negative = inhibition) at 10uM” value is -38.4%.
The result for `COC(=O)c1ccc(Oc2nc(Nc3ccc(F)cc3)nc(N3CCCC3)n2)cc1` reads -1.54%; that for `O=C1CC(C(=O)NCCc2ccccc2)SC(=Nc2ccccc2)N1` (centres unmarked), 12.1%; that for `O=C(CCC(=O)c1cccs1)NCc1cccnc1`, 21.9%.
Consider `CCOc1ccc(N2C(=O)CC(N(Cc3ccco3)C(=O)CCC(=O)O)C2=O)cc1` (centres unmarked), for which the “hERG current change (%, negative = inhibition) at 10uM” value amounted to 27.4%.
The value for `CCC(C)NC(=O)c1ccc(CSCc2ccc(Cl)cc2)o1` (centres unmarked) was -38.9%; that for `CCOCCCn1c(C)nc2c(c1=O)c1nc3ccccc3nc1n2-c1ccc(C)cc1` was -8.15%; that for `CCCCNC(=S)N1CCN(C)CC1.O=C(O)C(=O)O` was 8.09%.
